Measurements taken from patent publication US8669247B2, “2,5-disubstituted arylsulfonamide CCR3 antagonists” (Axikin Pharmaceuticals, Inc., priority 2009, dated 2014).

melting point (dihydrochloride salt): 156 to 162 °C | melting point (free base): 190 to 194 °C
Structure (SMILES): N#Cc1ccc(Sc2cc(Cl)ccc2Cl)c(S(=O)(=O)N2CCNCC2)c1 (as salt: hydrochloride) [Compound 76, 4-(2,5-Dichlorophenylthio)-3-(piperazin-1-ylsulfonyl)benzonitrile]

Structures can show the parent of a compound that is named as a salt. Where two headings read alike, the source gives them in different places. Some values that stand alone complete this part of the results.
